The results in this text go back to PubChem BioAssay AID1347073 (National Center for Advancing Translational Sciences (NCATS), 2019).

The campaign covered roughly 45,000 compounds. About 200 (0.44%) were called active. Inconclusive results (about 7%) are left out. Calls follow the shape of the dose curve; as a rule, active = well fitted activation curve with a large enough effect; inconclusive = small, poorly fitted or top-dose-only effect; inactive = no such curve, though single readings can be large or run the other way. The list shows a part of the results.
Potency is read from the fitted curve at half-maximal effect.

A short description of the assay: qHTS of TDP-43 Inhibitors: NCGC Sytravon Library Screen. Also: nearly all actives have a fitted effect of over 55% in size. As to growth rescue (activation): 0% is about no effect. Conditions: yeast TDP-43 toxicity rescue, BacTiter-Glo growth, 24 h; series mostly up to 46.1 µM; growth rescue (activation): at the top concentration. A digest of the protocol:
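TDP-43-expressing yeast, pregrown in raffinose, seeded at OD600 0.02 in galactose medium with compound for 24 hr at 30 deg C. Growth read by BacTiter-Glo luminescence, so rescue of toxicity appears as activation.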
Turning to `COc1ccc(-c2cc(NC(C)=O)c3ncc(-c4ccccc4)n3c2)cc1OC`, the “growth rescue (activation)” value is inactive: 3.78%. Same read-out and setting: the figure for `COc1ccc(OC)c(CCNC(=O)CN2C(=O)CCSc3ccccc32)c1` is inactive: 2.9%; for `CCNS(=O)(=O)c1ccc(NC(=O)CC(C)c2ccccc2)cc1` (centres undefined) it is inactive: -15.1%.

As to `COc1cccc(-n2c(Cc3cc(=O)[nH]c(=O)[nH]3)nnc2SCC(=O)N2CCC(C)CC2)c1`, the “growth rescue (activation)” value was inactive: 18%.

Regarding `O=C(CCSCc1ccccc1)Nc1ccc2c(c1)OCCO2`, the “growth rescue (activation)” value is inactive: 16.9%.

As to `CCOc1ccc(N2CC(C(=O)NC3CCCCCC3)CC2=O)cc1` (centres undefined), the “growth rescue (activation)” value is inactive: 10.6%. On the same count and under the same terms, the figure for `Cc1ccc(S(=O)(=O)N2CC(C(=O)O)Oc3ccccc32)cc1` (centres undefined) is inactive: 9.7%; for `COc1ccccc1CNC(=O)COC(=O)c1ccncc1` it is inactive: 8.18%.

`C=C(C)C1CC=C(C)/C(=N/NC(=O)CCC(=O)Nc2ccccc2Cl)C1` (centres undefined): the “growth rescue (activation)” value was inactive: -24.1%.

For the compound `CN(C)c1cccc(C(=O)OC(C(=O)Nc2ccc(Cl)cc2C(F)(F)F)c2ccccc2)c1` (centres undefined), the “growth rescue (activation)” value was inactive: 9.24%. The same measure, in the same setting: the figure for `O=C(CN1C(=O)NC2(CCCC2)C1=O)Nc1ccccc1C(F)(F)F` is inactive: 8.11%.

On to `CCCn1nc(C(=O)Nc2cc(S(=O)(=O)Nc3ccc(OC)cc3)ccc2O)c2ccccc2c1=O`, for which the “growth rescue (activation)” value is inactive: 18.8%.

For `CCc1nc2c(OCc3cccc(Cl)c3)cccn2c1N(C)C(=O)Nc1ccccc1OC`, the “growth rescue (activation)” value was inactive: 11.5%. The same measure, in the same setting: the figure for `Cc1cccc(C(C)C)c1NC(=O)Cn1c(=O)oc2cc(S(=O)(=O)N3CCCC3)ccc21` is inactive: 4.15%; for `CC(C)c1ccc(OCC(=O)NCCO)cc1` it is inactive: 11.9%; for `CC(=O)N/N=C/c1cc(C(C)(C)C)cc(/C=N/NC(C)=O)c1O` it is inactive: -21.3%. On the same count and under the same terms, the figure for `O=C(COC(=O)/C=C/c1ccccc1)NCc1ccc(Cl)cc1` is inactive: 17.3%; for `CCOC(=O)C1=C(O)/C(=C\c2sccc2C)N=C1C` it is inactive: 2.29%. The same measure, in the same setting: the figure for `O=C(CN1CCN(c2ccc(O)cc2)CC1)NC(=O)NCc1ccco1` is inactive: -5.39%; for `CCOc1ccc(/C=N/n2nnnc2N)cc1O` it is inactive: 20.1%; for `COC(=O)c1ccc(C(C(=O)NC2CCCCC2)N(CCc2ccccc2)C(=O)Cc2cccs2)cc1` (centres undefined) it is inactive: 7.66%.

As for `COc1cc(C(=O)Nc2nc3ccccc3[nH]2)ccc1OC(F)F`, the “growth rescue (activation)” value was inactive: -3.4%. Same read-out and setting: the figure for `CCOC(=O)CNC(=O)Cn1c(C)cc2ccccc2c1=O` is inactive: 29.4%. The same measure, in the same setting: the figure for `COCC(=O)n1nc(-c2ccco2)nc1NCc1ccccc1Cl` is inactive: 15.9%; for `CN(C)CCCNC(=S)NCC(c1ccc(Cl)cc1Cl)c1c[nH]c2ccccc12` (centres undefined) it is inactive: 18.2%. Consider `O=C(NC1CCC(O)CC1)c1ccc(S(=O)(=O)NCc2ccco2)cc1` (centres undefined), for which the “growth rescue (activation)” value is inactive: -3.23%. On the same count and under the same terms, next, `O=C(O)CC(NC(=O)c1ccncc1)c1ccccc1` (centres undefined): inactive: -9.12%. Same read-out and setting: the figure for `C=CCc1cccc2cc(-c3nc4ccc(C)cc4[nH]3)c(=O)oc12` is inactive: 20.9%; for `COc1ccc(CCNC(=O)c2ccc3c(c2)N(Cc2ccc(F)cc2)C(=O)c2ccccc2S3(=O)=O)cc1OC` it is inactive: 2.01%; for `COc1ccc(NS(=O)(=O)c2cc(NC(=O)COc3ccccc3)ccc2N2CCOCC2)cc1` it is inactive: -3.89%. In the case of `Cc1ccc(S(=O)(=O)N(C)CC(=O)NNC(=O)CCC(=O)c2ccc(F)cc2)cc1`, the “growth rescue (activation)” value was inactive: 5.87%. On the same count and under the same terms, the figure for `CCN(c1ccccc1)S(=O)(=O)c1ccc2[nH]cc(C(=O)NCCOC)c(=O)c2c1` is inactive: 8.75%. On the same count and under the same terms, the figure for `Cc1cc(Cl)c2oc(C(=O)NCCN3CCCCC3CO)c(C)c2c1` (centres undefined) is inactive: 1.25%.

As for `CCOC(=O)C1=C(SCC(=O)Nc2ccccc2)NC(=O)C(C#N)C12CCCCC2` (centres undefined), the “growth rescue (activation)” value is inactive: -12.3%.

For `CN(C)c1ccc(P(=O)(Nc2cccc(C(F)(F)F)c2)N2CCOCC2)c(NC(=O)c2cccs2)c1` (centres undefined), the “growth rescue (activation)” value was inactive: 8.61%. Regarding `CC(C)CNc1ncnc2c1ncn2[C@H]1CN(CCc2ccccc2)C[C@@H](CO)O1`, the “growth rescue (activation)” value is inactive: 10.3%. Still for that read-out and setting: next, `COC1CCCN(C(=O)c2ccc3nc(Cc4cccc(Cl)c4)oc3c2)C1` (centres undefined): inactive: 20.1%; `CC1CCCC(C)N1C(=O)CSc1nnnn1C1CCCC1` (centres undefined): inactive: -10.6%; `Cc1ncn(C23CC4CC(CC(C4)C2)C3)n1`: inactive: 19.6%.

Regarding `COc1ccccc1NC(=O)CSc1nnc(CC(=O)Nc2ccccc2F)n1C`, the “growth rescue (activation)” value was inactive: 3.75%. For `COc1cccc(N2CCN(C(=O)Nc3ccccc3Cl)CC2)c1`, the “growth rescue (activation)” value was inactive: 10.5%. The same measure, in the same setting: the figure for `Cn1c(=O)c2ccccc2n(CC(=O)NC2CCCCC2)c1=O` is inactive: -17.9%. With `Cc1ccccc1OCC(=O)NNC(=O)CN1C(=O)c2ccccc2C1=O`, the “growth rescue (activation)” value is inactive: 24.2%. For `O=C(Nc1ccc(N2CCCCC2)cc1)c1ccccn1`, the “growth rescue (activation)” value was inactive: -63.1%. Still for that read-out and setting: next, `Cc1ccc2nc(SCC3CCCCO3)[nH]c2c1` (centres undefined): inactive: -15.7%; `CCOC(=O)C1=C(C(F)(F)F)Nc2ncnn2C1c1ccc(OC)c(OC)c1OC` (centres undefined): inactive: 9.74%. Still for that read-out and setting: next, `Cc1ccc(C(=O)N/C(=C\c2cccc([N+](=O)[O-])c2)C(=O)OCN2C(=O)c3ccccc3C2=O)cc1`: inactive: -2.49%.

On to `Cc1cccc(C)c1OCCOC(=O)c1n[nH]c2ccccc12`, for which the Potency was active: 14.1 µM. Consider `O=C(CS(=O)(=O)Cc1ccccc1)NCc1ccco1`, for which the “growth rescue (activation)” value was inactive: -0.357%.

For `CN1CCN(c2ccc(Nc3ccnc4cc(Cl)ccc34)cc2)CC1`, the “growth rescue (activation)” value is inactive: 1.9%.

For the compound `Cc1cc(C)cc(N(C(=O)c2csnn2)C(C(=O)NC(C)(C)C)c2ccncc2)c1` (centres undefined), the “growth rescue (activation)” value is inactive: -6.05%.

On to `C/C(=N/NC(=O)c1cc(C)[nH]n1)c1ccncc1`, for which the “growth rescue (activation)” value was inactive: -0.475%. The same measure, in the same setting: next, `COc1ccc(CNC(=O)COC(=O)CN2C(=O)C3CC=CCC3C2=O)cc1` (centres undefined): inactive: -5.13%. The same measure, in the same setting: the figure for `CNC(=S)N/N=C/c1cc(Br)cc(Br)c1O` is inactive: 18%.
